# Reference: article PMC12136788
# Some of the results follow.
# T1: UNK ZnF1-6 (called full-length) (human, UniProt Q9C0B0 30-357)
# T1 sequence: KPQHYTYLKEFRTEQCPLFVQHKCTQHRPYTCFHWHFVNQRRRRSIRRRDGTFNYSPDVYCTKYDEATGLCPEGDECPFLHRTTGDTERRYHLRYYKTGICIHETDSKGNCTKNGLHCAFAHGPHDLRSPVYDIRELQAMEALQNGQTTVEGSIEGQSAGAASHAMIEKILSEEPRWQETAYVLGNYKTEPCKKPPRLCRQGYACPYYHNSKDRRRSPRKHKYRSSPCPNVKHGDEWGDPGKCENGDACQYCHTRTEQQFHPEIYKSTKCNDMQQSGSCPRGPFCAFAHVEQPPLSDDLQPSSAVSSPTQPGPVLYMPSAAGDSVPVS
# B1: chr12:29502561:29502662:-|3pUTR|ENSG00000133687|msi1|FALSE|unique (ssRNA)
# RNA: GGGAGUUCUACAGUCCGACGAUCUCUUAACAAUGAUGUAUGGCACAAUUGGUUGGUUGAGGCUAUCAUUCCAUGAUUACAAAUAGGUGGUUAUGUGGGGUGGUUUUGCACUUGUGGCAAUUGGACUGCAAUUUGGCCUUAAAACAACAGAGGAUUGAGCAUCA
# B2: chr12:57478539:57478757:-|CDS|ENSG00000123329|control|control|control (ssRNA)
# RNA: GGGAGUUCUACAGUCCGACGAUCCUCCCAAGCAGGGCUCAGGCUAGCUCGGAGCAGCCUCCUCCACUUCCCCGCAAAAUGUGUAGGAGCGUCAGCACUGACAAUCUGAGCCCCAGCCUUCUGAAGCCUUUCCAGGAAGGACCACAACAGAGGAUUGAGCAUCA
# B3: chrX:152750421:152751363:-|CDS|ENSG00000268606|control|control|control (ssRNA)
# RNA: GGGAGUUCUACAGUCCGACGAUCCGACAAUCAGGUCAUGCCCAAGACAGGCCUCCUGAUAAUCGUCCUGGCCAUAAUCGCAAUAGAGGGCGACUGUGCCCCUGAGGAGAAAAUCUGGGAGGAGCUGAGUAUGUUGGAGGUGUUCAACAGAGGAUUGAGCAUCA
# B4: chr17:10306458:10306629:-|CDS|ENSG00000006788|control|control|control (ssRNA)
# RNA: GGGAGUUCUACAGUCCGACGAUCCCACCUGGAGCGGAUGAAGAAGAACCUGGAGCAGACGGUGAAGGACCUGCAGCACCGUCUAGAUGAGGCUGAACAACUGGCGCUGAAGGGCGGGAAGAAGCAGAUCCAGAAACUGGAGAACAACAGAGGAUUGAGCAUCA
# B5: chr15:42211119:42211220:-|3pUTR|ENSG00000103978|unk|FALSE|unique (ssRNA)
# RNA: GGGAGUUCUACAGUCCGACGAUCAGGUUACAUCUUGCAGAGGUUGUUUUGAGAAAAAAGGGCCCUUCUGAGUUAAGGAGCCAUAGUUCUAUCAAUGAUCAAAAGAAAAAAAAAAAAAGAGAAACUGUUACAGUAUGAUUCAGACAACAGAGGAUUGAGCAUCA
# B6: chr13:39012690:39014476:-|CDS|ENSG00000120685|control|control|control (ssRNA)
# RNA: GGGAGUUCUACAGUCCGACGAUCCCAGGGUCAUUAAUAGCCACCUCAUCUACCGCUGCCACCUCCACAUCUCUCCCUCAUCCUAGCUCAACGGCAGCUGUUCUCUCAGGGCUUUCUGCUUCAGCACCAGUCUCAGCAGCACCUCAACAGAGGAUUGAGCAUCA
# B7: chr10:43183422:43183523:+|CDS|ENSG00000169826|msi1|total|mutant (ssRNA)
# RNA: GGGAGUUCUACAGUCCGACGAUCUAAAGCCAUGAAUGAGGCCUCUCACUCCCACCUGGGAAUGCUGGUCUUCAGGGAGGAAACCGAGACGCAUCUUCAUAAACAGGCAUACAGGACAAACAGUGAAGCUGUUGGUUGAAAUCACAACAGAGGAUUGAGCAUCA
# B8: chr2:70277881:70277982:+|3pUTR|ENSG00000116005|msi1|total|mutant (ssRNA)
# RNA: GGGAGUUCUACAGUCCGACGAUCACCUGAGGGAGAACUUAAAGACAUCUCCGUUGGGGAGCCGUCCUUUUGAAUUUUACAGCCCGAUAUAAUCUUCAGUCAGAUAAAAUUUAUGGGAGCUGGUGUCUUAUGCCUGACUCUCCGCAACAGAGGAUUGAGCAUCA
# B9: ENSG00000109805:stop:overlap|stop_codon|ENSG00000109805|stop_codon|NA|stop_codon (ssRNA)
# RNA: GGGAGUUCUACAGUCCGACGAUCCCGCAGCACUAGAAAAAAGUAAACUUAACCUUGCCCAAUUUCUCAAUGAAGAUCUAAGUUAGGAAAGACGAUGGAGGUGGAAUCCUUUAAGAUUAUGUCCAGUUAUUUGCUUUAAUAAAGCAACAGAGGAUUGAGCAUCA
# B10: chr11:9429001:9429102:+|CDS|ENSG00000205339|msi1_unk|total|mutant (ssRNA)
# RNA: GGGAGUUCUACAGUCCGACGAUCGGUACUUCACUAUUUUUGUGAAGUGAAGUUCAAAAGUGAUCAGAACCUUCAAACAGCCUCCGAGCUAACAAGAAGAUGUCUGAUUGAUGACCGAGAAAUGCCUGUGAAAGUGGAAGCUGCCAACAGAGGAUUGAGCAUCA
# B11: chrX:40073105:40073212:-|CDS|ENSG00000183337|unk|total|mutant (ssRNA)
# RNA: GGGAGUUCUACAGUCCGACGAUCCUACCAAGAUGCCCUGGGGUUGGGCAUGGUGCAUCCCAUGUUGAUACCACACACGCCCACCGAGAUUACUAAAGAGGAGAAACCAGAGAGGAGAUCCCGGUCCCAUGAGAGAGCCCGUUACAACAGAGGAUUGAGCAUCA
# B12: chr19:4409044:4409156:+|CDS|ENSG00000167670|unk|total|mutant (ssRNA)
# RNA: GGGAGUUCUACAGUCCGACGAUCCUGUCAUGUGGGUUCUGACACCGACUUCCGACCGAAACUUGUCAACGGGAAGGGUCCCUCCGAUAACUUUUUAAGAAACCGAAUCGAAACCAGUAUUGGCCAGAGCACAGUCAUCAUUGACAACAGAGGAUUGAGCAUCA
# B13: chr3:120395571:120395798:-|3pUTR|ENSG00000163430|msi1|FALSE|unique (ssRNA)
# RNA: GGGAGUUCUACAGUCCGACGAUCUGGUUCUGAUCAUUGGUCCAGAGGGGAGAUAGGUUCCUGUGAUUUUUCCUUCUUCUCUAUAGAAUAAAUGAAAUCUUGUUACUAGAACAAGAAAUGUCAGAUGGCCAAAAACAAGAUGACCAACAGAGGAUUGAGCAUCA
# B14: chr12:54395726:54395827:-|3pUTR|ENSG00000161638|msi1_unk|FALSE|overlapping (ssRNA)
# RNA: GGGAGUUCUACAGUCCGACGAUCAAGAACACUAACUAUGCAUGGUGCCCCAGGACCAGCUCAGGACAGAUGCCACACAAGGAUAGAUGCUGGCCCAGGGCCCAGAGCCCAGCUCCAAGGGGAAUCAGAACUCAAAUGGGGCCACAACAGAGGAUUGAGCAUCA
# B15: chr11:49981574:49982501:-|CDS|ENSG00000221954|control|control|control (ssRNA)
# RNA: GGGAGUUCUACAGUCCGACGAUCGAACAAUAGCUUGGAGGGGAGGUGUAAAGCCCUCUCCACCUGUAUUUCUCACAUCAUAGUAGUUGUCUUAUUCUUUGUGCCCUGUAUAUUUGUGUAUCUGCGCUCAGUGACCACUCUGCCCAACAGAGGAUUGAGCAUCA
# B16: chr13:32776882:32776983:+|3pUTR|ENSG00000083642|unk|FALSE|unique (ssRNA)
# RNA: GGGAGUUCUACAGUCCGACGAUCAAAGUGUUUUGAAUUGUGUCUUAAUCUCUCCAUAUUCAACUAUUCUUCAUUUACAACAAUAGUGACACCAGUAAUUAUGAGAGGCUGUCAUAUAUCAAAGCAGCUCAGGUGGGAUCAACACAACAGAGGAUUGAGCAUCA
# B17: chr1:162599429:162599460:+|3pUTR|ENSG00000117143|msi1_unk|FALSE|overlapping (ssRNA)
# RNA: GGGAGUUCUACAGUCCGACGAUCGGUAUUUGAACCAGAUACCAAGUUUUGUUUGCCACGAUAGGAAUAGCUUUUAUUUUUGAUAGACCAACUGUGAACCUACAAGACGUCUUGGACAACUGAAGUUUAAAUAUCCACAGGGUUCAACAGAGGAUUGAGCAUCA
# B18: chr9:127733218:127733560:-|CDS|ENSG00000160404|control|control|control (ssRNA)
# RNA: GGGAGUUCUACAGUCCGACGAUCGAGGUUCAGCUCUACAGCCUUAGCCUGUGCUCCCAGCAGAAUCCAGUUCCCCAUGGGCUUAGCUGGGCUUUCCCAGUGCCCUCCGCCACUCUCAGAGAUGACAUUGUCAUUCCGCCUGGUCAACAGAGGAUUGAGCAUCA
# B19: chr2:216672581:216672718:-|3pUTR|ENSG00000115461|msi1|total|mutant (ssRNA)
# RNA: GGGAGUUCUACAGUCCGACGAUCCACUCCACCAGUCCCCGGUCGCCAGCCGGAGUCUCCUCUCUACCGCCACUGUCACACCGCCGCCCACAUGGACCGCACAGUUGUCAGACAAGAUUCCUUCAGAUUCCGAGUUGCCUACCGCAACAGAGGAUUGAGCAUCA
# B20: chr20:54218986:54219149:+|CDS|ENSG00000101132|unk|FALSE|unique (ssRNA)
# RNA: GGGAGUUCUACAGUCCGACGAUCAAAUUUGCAAGAAGAAAUUGACGCCUUAGAAUCCAGAGUGGAAUCAAUUCAGCGAGUGUUAGCAGAUUUGAAAGUUCAGUUGUAUGCAAAAUUCGGGAGCAACAUAAACCUUGAAGCUGACAACAGAGGAUUGAGCAUCA
# B21: chr13:19993219:19993350:+|CDS|ENSG00000121741|unk|total|mutant (ssRNA)
# RNA: GGGAGUUCUACAGUCCGACGAUCUGAUGAUGAUGUUGUUUUUAUCGAACCUGUACAACCUCCCCCACCUUCUGUACCAGUGGCCGCUGAUCAAAGAACCAUAACAUUUACAUCAUCAAAAAAUGAAGAACUACAAGGAAAUGACAACAGAGGAUUGAGCAUCA
# B22: chr6:43012266:43012370:-|3pUTR|ENSG00000124733|unk|FALSE|bound_elsewhere (ssRNA)
# RNA: GGGAGUUCUACAGUCCGACGAUCGAGACCCACUUUAUUCAGUUCUGUACAUAUGGGGACAUCGGUCCAAGCCCAACCCACCUUAGCAUGUAUCACUCUGUGGAGAAUAAAGCACCCUAUGUACACAGCCAAAAGCCGCACUGCCAACAGAGGAUUGAGCAUCA
# Target: T1, UNK ZnF1-6 (called full-length)
# Experiment: nsRBNS (natural sequence RNA bind-n-seq); RBNS binding buffer (assumed for nsRBNS): 25 mM Tris pH 7.5, 150 mM KCl, 3 mM MgCl2, 0.01% Triton X-100, 500 ug/ml BSA, 20 U/ml SUPERase-In, 4 C; UNK is unkempt and MSI1 is Musashi-1; names of the RNAs are library labels; protein concentration not given here; high values mean tight binding
row,Binder,binding signal [enrichment R]
1,B1,0.497
2,B2,0.628
3,B3,0.71
4,B4,0.803
5,B5,0.762
6,B6,1.28
7,B7,0.583
8,B8,0.508
9,B9,0.92
10,B10,0.367
11,B11,0.783
12,B12,0.611
13,B13,0.56
14,B14,0.861
15,B15,1.79
16,B16,0.512
17,B17,0.666
18,B18,0.79
19,B19,0.819
20,B20,0.343
21,B21,0.529
22,B22,0.969
